Survival data for 91 compounds are collected here from PubChem BioAssay AID463173 (ICCB-Longwood Screening Facility, Harvard Medical School, 2010).

The whole screen tested about 52,000 compounds, of which about 4,300 (8.3%) were called active. Rule as the data show it: active = survival mostly below about 52% (no sharp cut-off); inactive = mostly above about 56%. The list shows a part of the results.

The subject of the test is DeltatarO mutant. Description: growth inhibition of S. aureus wild type versus tarO mutant, primary screen, teichoic acid synthesis inhibitors, RN4220, OD600 (AID 463173). Particulars: OD600, 18 h, active compounds read low, screened at 18.75 µg/mL (by protocol).
Turning to `CCCCNC(=O)CCCn1c(=O)c2ccccc2n(Cc2ccc(Cl)cc2)c1=O`, the survival is inactive: 128%.

Take `COc1ccc(C2CC(=O)c3cnc4c(-c5ccccc5)c(C)nn4c3C2)c(OC)c1` (stereo unspecified): the survival was inactive: 82%.

For the compound `COc1ccc2c(c1)c1c(c(=O)n(-c3ccc(OC)c(OC)c3)c(=O)n1Cc1ccc(C)cc1)n2C`, the survival was inactive: 73%.

Turning to `CC(C)n1c(SCC(=O)N2CCc3ccccc32)nc2c1c(=O)n(C)c(=O)n2C`, the survival is inactive: 66%.

With `COc1ccccc1CNC(=O)CCCn1c(=O)c2cccn2c2ccccc21`, the survival is inactive: 76%.

Consider `Cc1[nH]c2ccccc2c1/C=C(\C#N)C(=O)NCc1ccco1`, for which the survival is inactive: 62%.

For the compound `Cn1c(=O)c2c(ncn2CC(=O)Nc2cc(Cl)cc(Cl)c2)n(C)c1=O`, the survival is inactive: 66%.

Consider `Cn1cc(S(=O)(=O)N2CCCCCC2)cc1C(=O)N1CCN(c2ccc(Cl)cc2)CC1`, for which the survival is inactive: 78%.

Consider `Clc1ccc(CCNC(c2cccc(Cl)c2)c2nnc(-c3ccccc3)o2)cc1` (stereo unspecified), for which the survival was active: 11%.

As for `Cc1nn(C)c2c1c(C(F)(F)F)cc(=O)n2C(C)C(=O)N1CCN(c2ccccc2)CC1` (stereo unspecified), the survival was inactive: 86%.

On to `CCOC(=O)c1c(C)oc2ncnc(N3CCN(c4cccc(Cl)c4)CC3)c12`, for which the survival is inactive: 110%.

As to `COc1ccc(Cl)cc1NC(=O)CSc1nc2ccccc2nc1N1CCCCC1`, the survival is active: 27%.

For the compound `CCOC(=O)c1c(C)[nH]c(C)c1S(=O)(=O)N1CCN(c2ccccc2OC)CC1`, the survival was inactive: 122%.

On to `CCOC(=O)c1c(NC(=O)CS(=O)(=O)c2ccc(Cl)cc2)sc2c1CCCC2`, for which the survival is inactive: 77%.

With `COc1ccc(CCC(=O)NCc2nc3cccnc3n2Cc2ccc(OC)cc2)cc1`, the survival was inactive: 77%.

On to `CNC(=O)C1CCN(C(=O)N2CC(C)Oc3ccc(C)cc32)CC1` (stereo unspecified), for which the survival was inactive: 86%.

Consider `O=C(CN1CCN(c2cccc(Cl)c2)CC1)Nc1nccs1`, for which the survival is inactive: 93%.

Turning to `O=S(=O)(Nc1ccc(O)cc1)c1cccs1`, the survival is inactive: 83%.

Take `Cc1ccc(C)c(NC(=O)Cn2nnc(C(=O)NCc3ccco3)c2N)c1`: the survival is inactive: 102%.

As to `COc1ccc(NC(=O)C2CCN(c3nc(-c4ccc(OC)c(OC)c4)no3)CC2)cc1Cl`, the survival was inactive: 54%.

For `COc1ccc(-c2cc(C(=O)OCC(=O)c3cccc(OC)c3)c3cccc(Cl)c3n2)cc1`, the survival was inactive: 74%.

With `CCOC(=O)c1c(NC(=O)c2cc(=O)c3c(C)cc(C)cc3o2)sc2c1CCC2`, the survival was inactive: 61%.

`COc1ccccc1N(C)C(=O)Cn1c(=O)oc2cc(S(=O)(=O)N3CCCC3)ccc21`: the survival was inactive: 123%.

As for `Cc1ccccc1CNC(=O)C1CCCN(c2nnc(-n3c(C)ccc3C)s2)C1` (stereo unspecified), the survival was inactive: 72%.

For `Cc1ccc(CNC(=O)Cn2c(=O)n(-c3ccccc3)c(=O)c3c2c2cc(C)ccc2n3C)cc1`, the survival was inactive: 94%.

Regarding `Cc1ccc(NC(=O)CCSc2nc(-c3ccc4c(c3)OCO4)cc(C(F)(F)F)n2)cc1`, the survival is inactive: 66%.

As for `CCCCN(C)CCNC(=O)Cn1ncc2c([nH]c3ccccc32)c1=O`, the survival is active: 8%.

Consider `CCN(CC)CCNc1c2c(nc3cc(-c4ccc(OC)c(OC)c4)nn13)CCC2`, for which the survival is inactive: 80%.

As to `CCc1ccc(Oc2nc3c(C)cccn3c(=O)c2/C=C(\C#N)c2nc3ccccc3s2)cc1`, the survival is inactive: 71%.

Take `O=C(c1ccc(Cl)cc1)n1nc(-c2ccco2)nc1NCc1cccs1`: the survival was inactive: 68%.

For `O=C(O)CCc1ccc(-c2ccccc2)n1-c1cccc(Br)c1`, the survival was inactive: 65%.

Turning to `COc1cc(/C=C/c2nc(C#N)c(NC(C)c3ccccc3)o2)cc(OC)c1OC` (stereo unspecified), the survival is active: 40%.

With `CN(Cc1ccccc1)C(=O)c1cc2c(s1)-c1ccc(Cl)cc1SC2`, the survival is inactive: 86%.

In the case of `CCOc1ccc(CNC(=O)Cn2c(=O)c3cccn3c3ccc(F)cc32)cc1OC`, the survival was inactive: 47%.

Regarding `O=C(CCCCn1c(=O)c2ccccc2n(CC(=O)Nc2cccc(F)c2)c1=O)NCc1ccccc1Cl`, the survival is inactive: 89%.

In the case of `CCOC(=O)c1c(S(=O)(=O)N2CCCC(C(=O)Nc3ncccc3C)C2)c(C)n(C)c1C` (stereo unspecified), the survival was inactive: 76%.

On to `O=C(OCc1ccccc1Cl)c1ccc(-c2nnn(Cc3ccccc3Cl)n2)cc1`, for which the survival is inactive: 56%.

For `Cc1ccc(NC(=O)CCc2c(C)nn(-c3ccc(N4CCOCC4)nn3)c2C)cc1F`, the survival was inactive: 98%.

Consider `COc1ccc(N(C(=O)COc2ccc(Br)cc2)S(=O)(=O)c2ccc(C)cc2)cc1`, for which the survival is inactive: 81%.

In the case of `O=C(O)c1cccc(-n2cccc2)c1`, the survival is inactive: 97%.

Regarding `Cc1ccc(-n2ncc3c(N(CCO)Cc4ccccc4)ncnc32)cc1`, the survival was active: 8%.

`COc1ccc(CCCc2nnc(SCC(=O)Nc3ccccc3F)o2)cc1C`: the survival was inactive: 49%.

For `CCOCCCNC(=O)CN1C(=O)c2c(c3ccccc3n2C)C1c1ccc(OC)cc1` (stereo unspecified), the survival was inactive: 84%.

For the compound `COc1cccc(N(Cc2nnc3n2CCCCC3)C(=O)Nc2cccc(Cl)c2)c1`, the survival was inactive: 81%.

Take `O=C(O)CC1c2ccccc2Oc2ccccc21`: the survival is inactive: 92%.

Consider `CCOc1ccccc1NC(=O)N1CCCn2nc(C)cc21`, for which the survival was inactive: 86%.

Turning to `O=C(NCC(c1cccs1)S(=O)(=O)c1cccs1)c1ccc(C(F)(F)F)cc1` (stereo unspecified), the survival was inactive: 89%.

For the compound `COc1ccccc1NC(=O)c1ccc2[nH]c(C)cc(=O)c2c1`, the survival is inactive: 77%.

For `Cc1cc(Br)ccc1NC(=O)COc1cc(=O)n(C)c2ccccc12`, the survival is inactive: 111%.

Regarding `CN(C)c1ccc(C(CNC(=O)c2ccccc2Cl)N2CCc3ccccc32)cc1` (stereo unspecified), the survival was active: 37%.

Turning to `CCCCOc1ccc(C(=O)NCCS(=O)(=O)N2CCN(c3ccccc3OC)CC2)cc1`, the survival was inactive: 94%.

Turning to `Cc1ccc2oc(-c3cc(NC(=O)Cc4ccccc4)ccc3Cl)nc2c1`, the survival is active: 52%.

For `c1ccc(Cn2nnnc2C(c2cccnc2)N2CCN(c3ccccc3)CC2)cc1` (stereo unspecified), the survival was inactive: 83%.

As for `CCN(C(=O)CSc1nc2ccccc2nc1Cc1cccc(OC)c1)c1cccc(C)c1`, the survival is active: 0%.

`O=C(NC1CC(=O)N(c2ccc(F)cc2)C1)c1ccc(S(=O)(=O)N2CCCC2)cc1` (stereo unspecified): the survival is inactive: 69%.

For `O=C(COc1ccc(Cl)cc1)Nc1ccc(O)c(-c2nc3ccccc3s2)c1`, the survival was inactive: 94%.

As for `Cc1ccc(Cn2c(C(=O)O)c(CNCCc3cccs3)c3ccc(C)cc32)cc1`, the survival is inactive: 82%.

In the case of `Cc1ccc(NC(=O)Nc2nc3c(s2)CCCCCC3)cc1C`, the survival was inactive: 69%.

As to `Cc1ccc2c(c1)cc(C(=O)NCc1ccc(F)cc1)n2C`, the survival is inactive: 70%.

As to `COc1ccccc1N1CCN(c2ccc(=O)n(CC(=O)O)n2)CC1`, the survival is inactive: 87%.

As to `CCOCC(=O)Nc1ccc(-c2cn3c(C)csc3n2)cc1`, the survival was inactive: 130%.

On to `Cc1ccc2[nH]c(=O)c(-c3nc4c(C)cccn4c3NCc3ccco3)cc2c1`, for which the survival was inactive: 61%.

Turning to `NCC(O)CNCCc1ccccc1` (stereo unspecified), the survival was inactive: 98%.

`O=c1c2sc3ccccc3c2n(Cc2ccccc2F)c(=O)n1-c1ccccc1Cl`: the survival was inactive: 88%.

Regarding `Cc1ccccc1NC(=O)c1c(C)oc2ccc(O)c(CN3CCCC(C)C3)c12` (stereo unspecified), the survival is inactive: 108%.

As for `COc1cccc(CNC(=O)CSc2nc3ccccc3nc2Cc2ccccc2)c1`, the survival is inactive: 69%.

In the case of `COc1cc2c(cc1OC)C(c1ccc(F)cc1)N(c1ccccc1)C(=O)C2` (stereo unspecified), the survival is inactive: 74%.

`Cc1nnc(N2CCC(C(=O)NCc3ccc(F)cc3)CC2)c2nn(-c3ccc(Cl)cc3)c(C)c12`: the survival was inactive: 104%.

As to `CCN(CC)S(=O)(=O)c1ccc2nc(NC(=O)c3ccccc3OC)sc2c1`, the survival is inactive: 89%.

For the compound `CCOc1ccc(C2C(C(N)=O)=C(C)Nc3nc(-c4ccc(OC)cc4)nn32)cc1` (stereo unspecified), the survival was inactive: 87%.

Regarding `O=C(C1CCN(S(=O)(=O)c2ccc(Br)s2)CC1)N1CCN(c2ccc(F)cc2)CC1`, the survival is inactive: 87%.

Consider `COc1ccccc1C(=O)Nc1cccc(OCc2cc(=O)n3c4c(sc3n2)CCCC4)c1`, for which the survival is active: 39%.

Consider `COc1ccccc1Nc1nn2c(=O)c3ccc(C(=O)NC4CCC(C)CC4)cc3nc2s1` (stereo unspecified), for which the survival is inactive: 79%.

With `COc1ccccc1NC(=O)C1=C(C)NC(=S)NC1C` (stereo unspecified), the survival was inactive: 86%.

As for `COc1cccc(CNc2ncnc3c2nnn3C)c1`, the survival is inactive: 87%.

In the case of `CNC(=O)C1CCC(Cn2c(=O)c3sccc3n(CC(=O)N3CCCC3)c2=O)CC1` (stereo unspecified), the survival was inactive: 83%.

For the compound `COc1cccc(-c2csc(N3CCN(C(=S)NCc4ccco4)CC3)n2)c1`, the survival was inactive: 91%.

On to `COc1cccc(C2CC(=O)Nc3c2c(=O)[nH]c2ncnn32)c1OC` (stereo unspecified), for which the survival is inactive: 60%.

Turning to `CCN(C(=O)CSc1nc(-c2ccccc2)no1)c1cccc(C)c1`, the survival was active: -3%.

Turning to `Cc1cccc2cc(CN(C(=O)c3cccc(Cl)c3)c3ccccc3)c(=O)[nH]c12`, the survival was inactive: 76%.

For the compound `Cc1c(C(=O)Nc2ccccc2)sc2nc(-c3cc4ccccc4oc3=O)[nH]c(=O)c12`, the survival was inactive: 66%.

As for `O=C(C1CCCN(S(=O)(=O)c2ccc(Cl)cc2)C1)N1CCCC1` (stereo unspecified), the survival is inactive: 86%.

Consider `COc1ccc(-c2nnn(CC(=O)N(Cc3ccccc3)C(C)C(=O)NC3CCCC3)n2)cc1OC` (stereo unspecified), for which the survival was inactive: 84%.

Regarding `CCc1ccc2oc(C(=O)Nc3cc(Cl)ccc3OC)cc(=O)c2c1`, the survival was inactive: 65%.

For `Fc1ccc(Nc2nc(-c3cccc(Cl)c3)c3c(n2)-c2ccccc2OC3)cc1`, the survival was inactive: 87%.

Turning to `Cc1ccc(NC(=O)CCn2nc(-c3ccccc3)c3ccccc3c2=O)c(C)c1`, the survival is active: 52%.

Take `C=CCc1c(C)nc(-c2ccccc2)nc1NN`: the survival is inactive: 92%.

For `O=C(Nc1ccc2nc(SCC(=O)N3CCCc4ccccc43)sc2c1)c1ccccc1F`, the survival was inactive: 76%.

Take `O=C(Nc1cccc(C(=O)N2CCN(c3ccccc3)CC2)c1)c1nsc2ccccc12`: the survival is inactive: 86%.

As to `CCc1ccc(C2=C(C)C(N3CCC(C(=O)Nc4ccc(F)cc4)CC3)=NS2(=O)=O)cc1`, the survival is inactive: 80%.

Regarding `Cc1cc2ccccc2n1CCNC(=O)c1ccccc1F`, the survival was inactive: 84%.
